{"source": "PubChem BioAssay AID652104", "about": "(National Center for Advancing Translational Sciences (NCATS), 2013)", "note": "The campaign covered roughly 410,000 compounds. About 7,200 (1.8%) were called active. The inconclusive results got no clear call from the source; some entries with a clear call stand among them for comparison. Calls come from the whole dose curve; as a rule, active = well fitted activation curve with a large enough effect; inconclusive = small, poorly fitted or top-dose-only effect, or another doubt; inactive = no such curve, though single readings can be large or run the other way. No potency is given beside an inconclusive call; the fits are too rough. Potency is the fitted concentration of half-maximal effect; tags give direction and shape of the fitted curve.", "data": [{"assay": "qHTS of TDP-43 Inhibitors; note: nearly all actives have a fitted effect of over 50% in size; for growth rescue (activation): % of control where 0% means no effect", "conditions": "TDP-43 expressing yeast growth rescue, BacTiter-Glo, 24 h; growth rescue (activation): at 46.1 µM (top of the series) unless noted", "how_it_was_run": "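Readout is BacTiter-Glo luminescence of cell growth, so inhibitors register as activators. TDP-43-expressing yeast at OD600=0.02 in galactose medium, after raffinose pregrowth to mid-log, were incubated with compound for 24 hr at 30 deg C.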", "values": [{"smiles": "COc1ccccc1NS(=O)(=O)c1ccc(Cl)c(NC(=S)NC(=O)C2CCCC2)c1", "Potency": "inconclusive [activator, partial curve]"}, {"smiles": "COc1ccc(C(=O)NNC(=O)c2ccc(C(C)(C)C)cc2)cc1", "growth rescue (activation)": "inactive: -8.45%"}, {"smiles": "COc1ccc(-c2cn3nc(N4CCCC(C(=O)Nc5ccc(C)c(C)c5)C4)sc3n2)cc1", "note": "(stereo not drawn)", "growth rescue (activation)": "inactive: 12.8%"}, {"smiles": "CC(NC(=O)CSc1ccccc1)c1ccccc1", "note": "(stereo not drawn)", "Potency": "inconclusive [activator, partial curve]"}, {"smiles": "COc1ccc(S(=O)(=O)N2CC(C(=O)O)Oc3ccc(CC(=O)O)cc32)cc1", "note": "(stereo not drawn)", "growth rescue (activation)": "inactive: 0.78%"}, {"smiles": "CC(=O)c1sc(NCc2ccccc2)nc1C", "Potency": "inconclusive [activator, single point]"}, {"smiles": "Cn1c(-c2ccccc2)cnc1NCc1ccc(-c2ccccc2)cc1", "Potency": "inconclusive [activator, single point]"}, {"smiles": "CCOc1ccc(N2CC(C(=O)N3CCc4ccccc4C3)CC2=O)cc1", "note": "(stereo not drawn)", "Potency": "inconclusive [activator, partial curve]"}, {"smiles": "CN1CCN(C(=O)C23CCC(C)(C(=O)C2Br)C3(C)C)CC1", "note": "(stereo not drawn)", "growth rescue (activation)": "inactive: -7.81%"}, {"smiles": "Cc1ccc(C)c(OCCC(=O)NCCc2ccc(Cl)cc2)c1", "Potency": "inconclusive [activator, partial curve]"}, {"smiles": "Cc1ccc(S(=O)(=O)NCCC(=O)N2CCC(Cc3ccccc3)CC2)cc1", "Potency": "inconclusive [activator, single point]"}, {"smiles": "CCOc1ccc(CCNC(=O)COC(=O)c2cccc(S(=O)(=O)N3CCCC3)c2)cc1OCC", "Potency": "inconclusive [activator, partial curve]"}, {"smiles": "O=c1c2ccccc2c(C=Nc2ccc(Cl)cn2)c(O)n1-c1cc(Cl)ccc1N1CCOCC1", "growth rescue (activation)": "inactive: -3.58%"}, {"smiles": "COC(=O)N/N=C/c1ccc(-c2ccccc2Cl)o1", "Potency": "active: 20 µM"}, {"smiles": "COc1cccc(-c2nn(C)c3sc(C(=O)NCCc4ccc(Cl)cc4)cc23)c1", "Potency": "inconclusive [activator, single point]"}, {"smiles": "COc1ccc(/C=C(/C(=O)Nc2ccccc2C(=O)NC(C)C)c2ccccc2)cc1", "Potency": "active: 20 µM"}, {"smiles": "Cc1cc(S(=O)(=O)Nc2ccc(-c3ccc(N4CCCCC4)nn3)cc2)c(C)cc1Cl", "growth rescue (activation)": "inactive: -13%"}, {"smiles": "O=C(C1CCCN(S(=O)(=O)c2cccc3nsnc23)C1)N1CCc2ccccc21", "note": "(stereo not drawn)", "Potency": "inconclusive [activator, single point]"}, {"smiles": "N#Cc1ccc(Nc2nc(-c3ccccc3)cs2)cc1", "Potency": "active: 3.16 µM"}, {"smiles": "O=C(NCc1cccc(Cl)c1)c1cc(COc2ccc3ncccc3c2)on1", "Potency": "active: 14.1 µM"}, {"smiles": "O=C(CSc1nc2ccccc2[nH]1)N1CCN(c2ccccc2)CC1", "Potency": "inconclusive [activator, single point]"}, {"smiles": "Cn1cc(-c2csc(C(O)c3ccc(F)cc3)n2)cn1", "note": "(stereo not drawn)", "Potency": "inconclusive [activator, partial curve]"}, {"smiles": "N/C(=N\\OC(=O)c1cccc(Br)c1)c1ccncc1", "Potency": "inconclusive [activator, single point]"}, {"smiles": "CCc1nc2c(OCc3ccc(OC(F)F)cc3)cccn2c1N(C)C(=O)c1cccs1", "growth rescue (activation)": "inactive: 0%"}, {"smiles": "O=C(NCCN1C(=O)S/C(=C\\c2cccnc2)C1=O)C1=NN(c2ccccc2)C(=O)CC1", "Potency": "inconclusive [activator, single point]"}, {"smiles": "O=S(=O)(NC1CCCCC1Nc1ccc(Cl)cc1)c1ccccc1", "note": "(stereo not drawn)", "Potency": "inconclusive [activator, partial curve]"}, {"smiles": "S=C(c1ccc2c(c1)OCO2)N1CCN(c2cccc(Cl)c2)CC1", "Potency": "inconclusive [activator, partial curve]"}, {"smiles": "CCOc1ccc(NC(=O)CSc2nnc3scc(-c4ccc(Cl)cc4)n23)cc1", "Potency": "inconclusive [activator, single point]"}, {"smiles": "Cc1cc(-c2n[nH]c(=S)n2Cc2ccccc2)cs1", "Potency": "inconclusive [activator, partial curve]"}, {"smiles": "Cc1ccc(SCc2nc(-c3ccccc3)no2)cc1", "growth rescue (activation)": "inactive: 7.7%"}, {"smiles": "O=[N+]([O-])c1ccc(O)c(C(C#Cc2ccccc2)N2CCOCC2)c1", "note": "(stereo not drawn)", "Potency": "inconclusive [activator, single point]"}, {"smiles": "OC[C@@H]1CN(Cc2ccc(F)cc2)C[C@H](n2cnc3c(N4CCCC4)ncnc32)O1", "growth rescue (activation)": "inactive: -7.24%"}, {"smiles": "O=c1c(Br)ccc(Br)cc1Br", "growth rescue (activation)": "inconclusive: -90.9% [activator]"}, {"smiles": "Cc1cccc(C)c1NC(=S)N/N=C1\\CC2CC=CC12", "note": "(stereo not drawn)", "Potency": "inconclusive [activator, partial curve, poor fit]"}, {"smiles": "CC(=O)N1CCc2c(sc3c2c(=O)n(-c2ccccc2)c(=O)n3CC(=O)Nc2ccccc2C)C1", "growth rescue (activation)": "inactive: -19.2%"}, {"smiles": "CC(C)(C)c1ccc(C(=O)N2CCCN(c3ccc([N+](=O)[O-])cn3)CC2)cc1", "Potency": "inconclusive [activator, partial curve]"}, {"smiles": "CCOc1ccccc1NC(=O)COC(=O)c1cc(C(=O)OC)cc([N+](=O)[O-])c1", "growth rescue (activation)": "inactive: -26.3%"}, {"smiles": "Cn1c2ccccc2c(=O)c2cc(C#Cc3cccc(N)c3)ccc21", "Potency": "active: 12.6 µM"}, {"smiles": "O=C(NCc1cccnc1)c1cn(-c2ccccc2)nc1-c1ccccc1", "Potency": "inconclusive [activator, partial curve]"}, {"smiles": "CC(C)c1ccc(Nc2n[nH]c(=S)s2)cc1", "Potency": "active: 14.1 µM"}, {"smiles": "Cc1oc2ncn(CC(C)C)c(=O)c2c1C(=O)NCCCN1CCCCC1", "growth rescue (activation)": "inactive: 10%"}, {"smiles": "COc1ccccc1CNC(=O)c1nnc(Cc2ccc(Cl)cc2)o1", "Potency": "inconclusive [activator, partial curve]"}, {"smiles": "Cc1ccnc(NC(=O)c2ccc(Br)s2)c1", "Potency": "inconclusive [activator, partial curve, poor fit]"}, {"smiles": "CCOC(=O)c1ccc2oc(=O)n(Cc3ccccc3)c2c1", "Potency": "active: 7.94 µM"}, {"smiles": "O=C(c1ccccc1F)N1CCN(c2ccccc2F)CC1", "Potency": "inconclusive [activator, single point]"}, {"smiles": "Cc1cccc(N2CCN(C3=NC(=O)C(=C4CCCCC4)S3)CC2)c1", "Potency": "active: 7.08 µM"}, {"smiles": "Cc1ccc(C(=O)CC2(O)C(=O)N(CCc3ccccc3)c3ccc(Cl)cc32)cc1", "note": "(stereo not drawn)", "Potency": "inconclusive [activator, single point]"}, {"smiles": "Cc1cc(Nc2cccc(C)c2C)n2cnnc2n1", "growth rescue (activation)": "inactive: 1.66%"}, {"smiles": "COc1ccc(OCCCCn2c(-c3ccc(Cl)cc3)nc3ccccc3c2=O)cc1", "Potency": "inconclusive [activator, full curve, poor fit]"}, {"smiles": "COc1c2ccoc2c(OCC=C(C)C)c2oc(=O)ccc12", "Potency": "inconclusive [activator, partial curve]"}, {"smiles": "COC(=O)c1c(-c2ccc(C)cc2)csc1N", "Potency": "active: 12.6 µM"}, {"smiles": "CCCCCC(O)(c1ccccc1)C(CN1CCOCC1)c1ccccc1", "note": "(stereo not drawn)", "growth rescue (activation)": "inactive: -3.05%"}, {"smiles": "Cc1nc(Nc2ccccc2Cl)sc1C(=O)Nc1ccccc1", "growth rescue (activation)": "inactive: 9.74%"}, {"smiles": "CC12c3ccccc3C(c3ccccc31)C1C(=O)N(c3ccncc3)C(=O)C12", "note": "(stereo not drawn)", "Potency": "inconclusive [activator, single point]"}, {"smiles": "CNC(=S)N/N=C/c1ccccc1Cl", "Potency": "inconclusive [activator, partial curve]"}, {"smiles": "O=C(c1ccccc1)c1nc[nH]c1C(=O)Nc1ccccc1", "Potency": "inconclusive [activator, partial curve]"}, {"smiles": "CC1Cc2ccccc2N1C(=S)NC(=O)c1ccco1", "note": "(stereo not drawn)", "Potency": "inconclusive [activator, single point]"}, {"smiles": "Cc1ccc(-n2cccc2/C=C2\\C(=N)N3N=C(C(C)C)SC3=NC2=O)cc1", "Potency": "inconclusive [activator, single point]"}, {"smiles": "O=C(N/N=C/c1cc(Br)c(Br)o1)c1cc2ccccc2o1", "growth rescue (activation)": "inactive: 3.96%"}, {"smiles": "CC1=C(C(N)=O)C(c2ccccn2)n2nc(SCc3ccccc3Cl)nc2N1", "note": "(stereo not drawn)", "Potency": "inconclusive [activator, partial curve]"}, {"smiles": "COc1cccc(CNC(=O)Cc2ccc(NC(=O)N3CCCCc4ccccc43)cc2)c1OC", "growth rescue (activation)": "inactive: 11.2%"}, {"smiles": "Cc1ccc(C(=O)N/N=C/C2=Cc3ccccc3OC2C)cc1", "note": "(stereo not drawn)", "Potency": "inconclusive [activator, partial curve]"}, {"smiles": "COc1ccc(CNC(=O)C(=O)NCCC2CCCCN2S(=O)(=O)c2ccc(C)cc2)cc1", "note": "(stereo not drawn)", "Potency": "inconclusive [activator, single point]"}, {"smiles": "COc1cccc(C(=O)NC(=S)Nc2ccc(N3CCCC3)cc2)c1", "Potency": "inconclusive [activator, partial curve]"}, {"smiles": "COCC(C)n1c(C)cc(C(=O)COC(=O)/C=C/c2cccc(F)c2)c1C", "note": "(stereo not drawn)", "Potency": "inconclusive [activator, partial curve]"}, {"smiles": "COc1cc(/C=C/C(=O)N2CCOCC2)ccc1OCc1ccccc1", "Potency": "inconclusive [activator, full curve, poor fit]"}, {"smiles": "COc1cc(SC)ccc1C(=O)NCCOc1ccccc1Cl", "Potency": "inconclusive [activator, single point]"}, {"smiles": "CCOc1ccccc1NC(=O)COn1nnc2ccccc21", "Potency": "inconclusive [activator, partial curve]"}, {"smiles": "O=C(c1ccco1)N1CCN(C(=O)c2ccccc2OCc2ccc(Cl)cc2)CC1", "growth rescue (activation)": "inconclusive: 43.3% [activator]"}, {"smiles": "CCc1ccc2ncc3c(-c4ccc(F)cc4)nn(CC(=O)NCc4ccccc4)c3c2c1", "growth rescue (activation)": "inactive: 5.92%"}, {"smiles": "Cc1nc(-c2cccnc2)sc1C(=O)Nc1ccc(C(F)(F)F)cc1", "Potency": "active: 11.2 µM"}, {"smiles": "Cc1ccc(CN(Cc2cccnc2)C(=S)Nc2cccc(Cl)c2C)cc1", "Potency": "inconclusive [activator, single point]"}, {"smiles": "N/C(=N\\OC(=O)c1ccncc1)c1cccc([N+](=O)[O-])c1", "Potency": "inconclusive [activator, single point]"}]}]}
